From the RNAGym collection of RNA variant scans (doi:10.7554/elife.90254) come the findings set out here.

Read counts are not given, so values of variants with three or more changes are uncertain.

To fix the notation:
B1: OR4K15 (parent)
chain: GUUAACGGUCAUAGGCCAUGGAAACUAGGAGCACCAUUUCGCUGCCAGUGAAGAAAUGAACAAAGAAAAUCUGGGCCAGGCAGGCAUCAAAAGAAAUAGUCUUGCGCUCAACCAGAAAGUCUGUAAUCAUUUUAAGGGUA

The variants in this data set derive from B1. Nature of the data set: self-cleavage, relative activity (ratio to wild type); higher = more cleavage; in vitro, sequencing; the parent is a self-cleaving ribozyme.
On to GUUAACGGUCAUAGGCCAUGGAGACUAGGAGCACCAUUUCGCUGCCAGUGAAGAAAUGAACAAAGAAAAUCUGGGCCAGGCAGGCAUCAAAAGAAAUAGUCAUGCGCUCAACCAGAAAGUCUGUAAUCAUUUUAAGGGCA, for which the self-cleavage was 0.57.

Take GUUAACGGUCAUAGGCCAUGGAGACUAGGAGCACCAUUCCGCUGCCAGUGAAGAAAUGAACAAAGAAAAUCUGGGCCAGGCGGGCAUCAGAAGAAAUAGUCUUGCGCUCAACCAGAGAGUCUGUAAUCAUCUUAAGGGUA: the self-cleavage stood at 0.15.

Regarding GUUAACGGUCAUAGGCCAUGGAGACUAGGAGCACCAUUUCGCUGCCAGGGAAGAAAAGGACAAAGAAAAUCUGGGCCAGGCAGGCAUCAAAAGAAAAAGUCUUGCGCUCAACCAGAAAGUCUGUAAUCAUUUUAAGGGUA, the self-cleavage turned out to be 1.19.

Consider GUUAACGGUCAUAGGCCAUGGAGACUAGGAGCACCAUUUCGCUGCCAGCGGAGAAAUGAACGAAGAAAAUCUGGGCCAGGCAGGCAUCAAAAGAAGUAGUCUUGCGCUCAACCAGAAAGUCUGUAAUCAUUUUAAGGGUA, for which the self-cleavage was 0.71.

As to GUUAACGGUCAUAGGCCAUGGAGACUAGGAGCACCAUUUCGCAGCCAGUGAAGAAAUGAACAAAGAAAAUCUGGGCCAGGCGGGCAUCAAAAGAAAUAGUCUUGCGCUCAACCAGAAAGUCUGUAAUCAUUUUAAGGGCA, the self-cleavage is 0.23.

Turning to GUUAACGGUCAUAGGCCAUGGAGACUAGGAGCACCAUUUCGCAGCCAGUGAAGAGAUGAACGAAGAAAAUCCGGGCCAGGCAGGCAUCAAAAGAGAUAGUCUUGCGCUCAACCAGAAAGUCUGUAAUCAUUUUAAGGGUA, the self-cleavage came out at 0.16.

For GUUAACGGUCAUAGGCCAUGGAGACUAGGAGCACCAUUCCGCUGCCAGUGAAGAAAUGAACAAAGAAAAUCUGGGCCAGGCAGGCUUCAAAAGAAAUAGUCUUGCGCUCAUCCAGAAAGUCUGUAAUCGUUUUAAGGGUA, the self-cleavage worked out at 0.04.

Turning to GUUAACGGUCAUAGGCCAUGGAGACUAGGAGCACCAUUUCGCCGCCAGUGGAGAAAUGAACAAAGAAAAUCUGGGCCAGGCAGGCAUCAAGAGAAAUAGUCUUGCGCUCAACCAGAAAGUCUGUAAUCAUUUUAAGGGCA, the self-cleavage worked out at 0.47.

Take GUUAACGGUCAUAGGCCAUGGAGACUAGGAGCACCAUUUCGCUGCCAGCGAGGAAAUGAACAAAGAAAGUCUGGGCCAGGCAGGCAUCAAAAGAAAUAGUCUUGCGCUCAACCAGAAAGUCUGUAAUCAUUUUAAGGGUA: the self-cleavage turned out to be 0.86.

For the variant GUUAACGGUCAUAGGCCAUGGAGACUAGGAGCACCAUUUCGCUGCCAGUGAAGAAAUGAACAAAGAAAAUCUGGGCCAGGCAGGCACCAAGAGAAAUAGUCUUGCGCUCAACCAGAAAGUCUGUAAUCAUUUUAAGGGUA, the self-cleavage worked out at 1.32.

Regarding GUUAACGGUCAUAGGCCAUGGAGACUAGGAGCACCAUUACGCUGCCAGUGAAGAAAUGAACAAAGAAAAUCUGGGCCAGGCAGGCAUCAAAAGAAAUAGUCUUGCGCUCAACCAGAAAGUCUGUAAUCAUUUUAUGGGUA, the self-cleavage came out at 0.86.

GUUAACGGUCAUAGGCCAUGGAGACUAGGAGCACCAUUUCGCUGCCAGCGGAGAAAUGAACGAAGAAAAUCUGGUCCAGGCAGGCAUCAAAAGAAAUAGUCUCGCGCUCAACCAGAAAGUCUGUAAUCAUUUUAAGGGUA: the self-cleavage stood at 0.05.

As to GUUAACGGUCAUAGGCCAUGGAGACUAGGAGCACCAUUCCGCUGCCAGUGAAGAAAUGAACAAAGAAAAUCUGGGCCAGGCAGGCAUCAAAAGAAAUAGUCUUGCGCUCAACCAGAAAGUCUGUAAUCAUUAUAAGGGUA, the self-cleavage amounted to 1.29.

Consider GUUAACGGUCAUAGGCCAUGGAGACUAGGAGCACCAUUUCGCUGCCAGCGAAGAAAUGAACAAAGAAAAACUGGGCCAGGCAGGCAUCAAGAGAAAUAGCCUUGCGCUCAACCAGAAAGUCUGUAACCAUUUUAAGGGUA, for which the self-cleavage was found to be 1.21.

For the variant GUUAACGGUCAUAGGCCAUGGAGACUAGGAGCACCAUUCCGCUGCCAGUGAAGAAAUGAACAAAGAAAAUCGGGGCCAGGCAGGCAUCAAAAGAAAUAGUCUUGCGCUCAACCAGAAAGUCUGUAAUCAUUUUAAGGGUA, the self-cleavage worked out at 0.24.

Regarding GUUAACGGUCAUAGGCCAUGGAGACUAGGAGCACCAUUACGCUGCCAGUGAAGGAAUGAACAAAGAAAAUCUGGGCCAGGCAGGCAUCAAAAGAAAUAGUCUUGCGCUCAACCAGAAAGUCUGUAUUCAUUUUAAGGGUA, the self-cleavage was determined as 1.

In the case of GUUAACGGUCAUAGGCCAUGGAGACUAGGAGCACCAUUUCGCAGCCGGAGAAGAAAUGAACAAAGAAAAUCUGGGCCAGGCAGGCACCAAAAGAAAUAGUCUUGCGCUCAACCAGAGAGUCUGUAAUCAUCUUAAAGGUA, the self-cleavage amounted to 1.32.

On to GUUAACGGUCAUAGGCCAUGGAGACUAGGAGCACCAUUUCGCAGCCAGUGACGAAAUGAACAAAGAAAAUCUGGGCCGGGCAGGCAUCAAAAGAAAUAGUCUUGCGCUCAACCAGAAAGUCGGUAAUCAUUUUAAGGGUA, for which the self-cleavage was determined as 0.26.

Take GUUAACGGUCAUAGGCCAUGGAGACUAGGAGCACCAUUUCGCUGCCAGUGAAGAAAUGAACAAAGAAAAUCUGGGCCAGGCAGGCAUCAAAAGAAAUAGUCUUGCGCACAACCAGAAUGUCUGUAAUCAUUUUAAGGGUA: the self-cleavage stood at 0.06.

As for GUUAACGGUCAUAGGCCAUGGAGACUAGGAGCACCAUUCCGCUGCCAGUGAAGAAAUGAACAAAGAAAAUCUGGGCCAGGCAGGCAUCAAAAGAAAUAGUCUUGCGCUCAACCAGAAAGUCUGUAAUCAUCUUAAGGGUA, the self-cleavage stood at 1.44.
